The source of these data is article PMC4336329 (PLoS ONE, 2015).

The whole screen tested about 310,000 compounds, of which about 2,200 (0.71%) showed an effect of 50% or more. The effect is printed as a negative number. Some of the results follow.

Chain of human ether-à-go-go-related gene (hERG) potassium channel (Q12809 whole entry, looked up): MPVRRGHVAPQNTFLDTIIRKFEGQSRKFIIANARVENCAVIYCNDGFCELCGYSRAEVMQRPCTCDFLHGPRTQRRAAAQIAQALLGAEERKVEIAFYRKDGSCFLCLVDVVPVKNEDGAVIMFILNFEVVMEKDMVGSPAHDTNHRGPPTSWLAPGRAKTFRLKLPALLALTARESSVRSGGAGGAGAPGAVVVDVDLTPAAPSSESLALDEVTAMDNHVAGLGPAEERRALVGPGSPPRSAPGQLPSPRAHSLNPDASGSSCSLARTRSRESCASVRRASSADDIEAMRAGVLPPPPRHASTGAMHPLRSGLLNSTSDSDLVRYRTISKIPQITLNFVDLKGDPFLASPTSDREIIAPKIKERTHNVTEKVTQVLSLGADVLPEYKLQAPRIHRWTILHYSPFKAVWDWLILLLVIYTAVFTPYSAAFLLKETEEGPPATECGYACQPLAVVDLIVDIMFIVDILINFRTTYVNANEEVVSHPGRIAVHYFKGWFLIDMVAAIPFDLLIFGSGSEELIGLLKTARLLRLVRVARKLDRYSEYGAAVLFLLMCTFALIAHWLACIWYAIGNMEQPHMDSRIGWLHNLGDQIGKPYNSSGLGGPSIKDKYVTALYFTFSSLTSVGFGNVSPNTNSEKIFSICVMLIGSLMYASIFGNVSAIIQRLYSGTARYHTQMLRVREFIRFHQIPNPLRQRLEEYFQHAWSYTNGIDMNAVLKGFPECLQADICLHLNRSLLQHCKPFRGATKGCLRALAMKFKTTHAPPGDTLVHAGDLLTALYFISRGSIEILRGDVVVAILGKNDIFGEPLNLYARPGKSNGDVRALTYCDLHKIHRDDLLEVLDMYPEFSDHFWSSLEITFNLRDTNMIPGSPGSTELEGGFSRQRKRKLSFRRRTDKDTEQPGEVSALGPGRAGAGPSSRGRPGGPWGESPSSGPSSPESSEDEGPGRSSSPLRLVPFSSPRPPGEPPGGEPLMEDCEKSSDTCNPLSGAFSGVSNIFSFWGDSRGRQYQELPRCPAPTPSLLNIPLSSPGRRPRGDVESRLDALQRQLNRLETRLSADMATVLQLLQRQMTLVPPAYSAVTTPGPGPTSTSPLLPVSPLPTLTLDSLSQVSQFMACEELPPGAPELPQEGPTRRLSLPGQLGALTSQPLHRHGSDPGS

This assay has as its target human ether-à-go-go-related gene (hERG) potassium channel (human, UniProt Q12809). Nature of the assay: primary screen, population patch clamp on CHO cells stably expressing hERG.
With `Cn1c(=O)[nH]c(=O)c2c1nc(N1CCCCC1)n2CCCSc1nc2ccccc2s1`, the “hERG current change (%, negative = inhibition) at 1uM” value came out at 9.13%.
As for `COc1cc(OC)cc(-c2c(-c3cccs3)c3cc(-c4ccc5cc[nH]c5c4)ccc3n2C)c1`, the “hERG current change (%, negative = inhibition) at 1uM” value came to 21.5%.
As to `Cc1nn(C)c(Oc2cccc(Cl)c2)c1C(=O)Nc1ccc(F)cc1`, the “hERG current change (%, negative = inhibition) at 1uM” value is listed as -10.7%.
On to `C=CCOC(=O)C1=C(C)NC(SCC(N)=O)=C(C#N)C1c1cccs1` (centres unmarked), for which the “hERG current change (%, negative = inhibition) at 1uM” value is given as 7.02%.
For the compound `COc1ccc(-c2nnn(CC(=O)N(Cc3cccs3)C(C)C(=O)NCCC(C)C)n2)cc1OC` (centres unmarked), the “hERG current change (%, negative = inhibition) at 1uM” value was -3.84%.
In the case of `O=C(Nc1ccccc1F)NC1CCN(Cc2nnnn2Cc2ccc(F)cc2)CC1` it was -34.6%.
On to `COc1ccccc1NS(=O)(=O)c1cc(NC(=O)c2ccc(Cl)nc2)ccc1Cl`, for which the “hERG current change (%, negative = inhibition) at 1uM” value stood at 7.41%.
As for `COc1ccc(-c2cc(C(=O)OCC(=O)NC(C)(C)C)c3ccccc3n2)cc1`, the “hERG current change (%, negative = inhibition) at 1uM” value is 6.37%.
With `CC(=O)Oc1ccc2c(C)c(CC(=O)N3CCN(C(=O)C4COc5ccccc5O4)CC3)c(=O)oc2c1C` (centres unmarked), the “hERG current change (%, negative = inhibition) at 1uM” value is -21.2%.
As for `Cc1cc(Br)ccc1SCC(=O)OCC(=O)NC1CCCC1`, the “hERG current change (%, negative = inhibition) at 1uM” value worked out at 16.6%.
With `COc1cnn(-c2cccc(C(F)(F)F)c2)c(=O)c1Cl`, the “hERG current change (%, negative = inhibition) at 1uM” value is 13.2%.
As to `CC1(C)CC2CC(C)(CN2S(=O)(=O)c2cccc(C(=O)OCC(=O)NC(N)=O)c2)C1` (centres unmarked), the “hERG current change (%, negative = inhibition) at 1uM” value was determined as 6.36%.
As for `COc1ccccc1-c1cc(C(=O)O)c2c(=O)n(C)c(=O)n(Cc3ccccc3)c2n1`, the “hERG current change (%, negative = inhibition) at 1uM” value turned out to be 12.7%.
Turning to `O=C(OCc1ccccc1)C1=NNC2C(=O)N(c3ccccc3)C(=O)C12` (centres unmarked), the “hERG current change (%, negative = inhibition) at 1uM” value was determined as 1.98%.
As to `CCN1CCN(c2cc(C)c3cc(NC(=O)c4cncc(Br)c4)ccc3n2)CC1`, the “hERG current change (%, negative = inhibition) at 1uM” value was -14.3%.
`O=C(Nc1ccccc1C(F)(F)F)N1CCN(c2ccc3nnc(-c4ccc(F)cc4)n3n2)CC1`: the “hERG current change (%, negative = inhibition) at 1uM” value is reported as -4.48%.
With `O=C(Cc1ccccc1)Nc1ccc(NC(=O)c2ccco2)cc1`, the “hERG current change (%, negative = inhibition) at 1uM” value came to 16.2%.
As for `COc1ccc(C)c2sc(N(CCCN(C)C)C(=O)c3ccc(S(=O)(=O)N4CCc5ccccc5C4)cc3)nc12.Cl`, the “hERG current change (%, negative = inhibition) at 1uM” value is reported as 11.5%.
Consider `CC(C)NS(=O)(=O)c1ccc(CCC(=O)NCc2ccccn2)cc1`, for which the “hERG current change (%, negative = inhibition) at 1uM” value came out at 12%.
Take `CC(C)CN(CC(C)C)S(=O)(=O)N1CCC(C(=O)NCCN2CCOCC2)CC1`: the “hERG current change (%, negative = inhibition) at 1uM” value is on record as 9.27%.
`O=c1[nH]c2ccccc2cc1-c1nnn(-c2ccccc2)n1`: the “hERG current change (%, negative = inhibition) at 1uM” value was found to be 1.76%.
Consider `O=C1CCNCCN1[C@H](CO)Cc1ccccc1`, for which the “hERG current change (%, negative = inhibition) at 1uM” value is on record as 11.2%.
Turning to `CC(C)(C)OC(=O)N/N=C\c1cccnc1`, the “hERG current change (%, negative = inhibition) at 1uM” value amounted to 28.2%.
As to `COc1ccc(-c2nn(CCC#N)cc2C(=O)NCc2ccccc2)cc1`, the “hERG current change (%, negative = inhibition) at 1uM” value is reported as 2.28%.
Under `COc1ccc(CC(=O)NCCc2ccc(Cl)cc2Cl)cc1` stands 10.7%; under `O=C(Nc1nccs1)c1ccc(Br)c(S(=O)(=O)N2CCOCC2)c1`, 7.78%; under `Cc1occc1C(=O)N/N=C/c1ccc(Br)s1`, 21.3%.
Consider `Cc1occc1C(=O)N/N=C/c1c(O)ccc2ccccc12`, for which the “hERG current change (%, negative = inhibition) at 1uM” value turned out to be 19.4%.
On to `CC(C)OC(=O)NC(Nc1ccccc1C(=O)O)(C(F)(F)F)C(F)(F)F`, for which the “hERG current change (%, negative = inhibition) at 1uM” value was 12.6%.
In the case of `O=C(O)c1cc(-c2ccccc2)nc2nc(N3CCCCC3)sc12` it was 14.8%; in that of `COc1ccc(CN(C)C(=O)Cc2ccsc2)c(OC)c1OC`, 14.9%; in that of `Cc1occc1-c1nnc(SCC(=O)N2CCN(c3ccc(F)cc3)CC2)n1C`, -30.3%.
In the case of `Cc1ccc(NC(=O)/C(=C\C=C\c2ccccc2)NC(=O)c2ccccc2)cc1` it was 9.63%; in that of `O=C(CCNC(=O)c1ccc(Br)cc1)NCc1ccccn1`, 2.25%.
Consider `CS(=O)(=O)Cc1ccc(C(=O)Nc2cccc(-c3nc4ccccc4[nH]3)c2)cc1`, for which the “hERG current change (%, negative = inhibition) at 1uM” value was determined as 7.9%.
As to `CCOC(=O)c1c(NC(=O)/C=C/C(=O)O)sc(C)c1-c1ccc(Cl)cc1`, the “hERG current change (%, negative = inhibition) at 1uM” value is 0.41%.
`Cc1ccc2[nH]c3c(=O)n(CC(=O)NCCc4ccc(Cl)cc4)ncc3c2c1`: the “hERG current change (%, negative = inhibition) at 1uM” value was determined as 4.75%.
In the case of `CCOC(=O)c1cnc2c(Cl)c(Cl)ccc2c1NCCN1CCOCC1.Cl`, the “hERG current change (%, negative = inhibition) at 1uM” value came out at 12.3%.
With `C#CCN1C(=O)C(O)(CC(=O)/C=C/C=C/c2ccccc2)c2ccccc21` (centres unmarked), the “hERG current change (%, negative = inhibition) at 1uM” value was 13.5%.
Take `Cc1nc(C)c(C)nc1C`: the “hERG current change (%, negative = inhibition) at 1uM” value is 13.8%.
Under `Fc1ccc(C2CCCN2Cc2nc(CC3CC3)no2)cc1` (centres unmarked) stands 8.01%.
Turning to `O=C(Oc1ccccc1)c1ccccc1OS(=O)(=O)c1ccccc1`, the “hERG current change (%, negative = inhibition) at 1uM” value is reported as 9.57%.
In the case of `CCOc1ccc(C2c3[nH]c4ccccc4c3CCN2C(=O)Cn2cncn2)cc1` (centres unmarked), the “hERG current change (%, negative = inhibition) at 1uM” value amounted to 3.06%.
On to `CN(c1ccccc1)S(=O)(=O)c1ccc(NC(=O)COc2ccccc2)cc1`, for which the “hERG current change (%, negative = inhibition) at 1uM” value is recorded as -5.87%.
For the compound `Brc1ccc(-c2nnc(-c3ccccc3)o2)o1`, the “hERG current change (%, negative = inhibition) at 1uM” value was -12.6%.
On to `COc1ccc(/C=C/C(=O)NCCCc2ccccc2)cc1OC`, for which the “hERG current change (%, negative = inhibition) at 1uM” value turned out to be 8.52%.
For `CC(=O)c1ccc(S(=O)(=O)NCCC(=O)N2CCN(c3ccccn3)CC2)cc1`, the “hERG current change (%, negative = inhibition) at 1uM” value is 6.53%.
With `Cc1ccc(S(=O)(=O)c2cc3c(=O)n4ccccc4nc3n(C3CCCCC3)c2=N)cc1`, the “hERG current change (%, negative = inhibition) at 1uM” value was -0.427%.
`O=C(c1ccc(F)cc1)N1CCCC(C(=O)N2CCN(c3ccccc3)CC2)C1` (centres unmarked): the “hERG current change (%, negative = inhibition) at 1uM” value is reported as 14.6%.
In the case of `NC(=S)Nc1ccc2c(c1)OCO2`, the “hERG current change (%, negative = inhibition) at 1uM” value amounted to 12.3%.
As for `CCc1ccc(C2C3=C(CC(C)(C)CC3=O)Nc3c2c(=O)[nH]c2nc(C)nn32)cc1` (centres unmarked), the “hERG current change (%, negative = inhibition) at 1uM” value was found to be 11.6%.
Take `O=S(=O)(c1ccccc1)c1cnn2c(C(F)(F)F)cc(-c3ccc(F)cc3)nc12`: the “hERG current change (%, negative = inhibition) at 1uM” value is recorded as -5.21%.
In the case of `COc1ccc(CNC(=O)C2CC(c3ccc(C(F)(F)F)cc3)=NO2)cc1` (centres unmarked) it was 3.97%; in that of `CC(C)c1ccc(OCC(=O)NC2CC(C)(C)NC(C)(C)C2)c(Br)c1`, 3.1%; in that of `COc1ccccc1OCCCn1c(=O)oc2ccccc21`, 3.42%.
Take `CC(C)C(=O)NCC(c1ccc2c(c1)OCO2)N1CCOCC1` (centres unmarked): the “hERG current change (%, negative = inhibition) at 1uM” value came to 12.4%.
For `CC(C)CC(NC(=O)c1ccco1)C(=O)Nc1ccc2c(c1)OCCO2` (centres unmarked), the “hERG current change (%, negative = inhibition) at 1uM” value is reported as 4.35%.
`COC(=O)C(NC(=O)c1ccccc1)c1ccccc1` (centres unmarked): the “hERG current change (%, negative = inhibition) at 1uM” value stood at 8.1%.
Under `COc1ccc(S(=O)(=O)Nc2nnc(CC(C)C)s2)cc1` stands 0.514%; under `Cc1ccc(NC(=S)N(Cc2ccccc2)C(C)C)cc1`, 8.12%.
In the case of `CC1CN(CC(=O)Nc2nc(-c3ccc(Cl)cc3)cs2)CC(C)O1` (centres unmarked) it was 8.3%; in that of `Cc1cccc(C(=O)NCCCNC(=O)c2cccnc2)c1`, 7.34%.
Consider `O=C1COc2ccc(NC(=O)N3CCN(c4ccc(F)cc4)CC3)cc2N1`, for which the “hERG current change (%, negative = inhibition) at 1uM” value is recorded as -36.8%.
Under `Cc1ccc(NC(=O)COc2coc(CN3CCN(c4ccccc4)CC3)cc2=O)cc1` stands 1.94%; under `CSc1ccc(CN(C)CC(=O)Nc2cccc(Br)c2)cc1`, -2.57%; under `COc1cc(NS(=O)(=O)c2ccccc2)ccc1-n1nc(C)cc1C`, 3.72%.
Under `COc1cc(NC2=CC(=O)CC(C)(C)C2)cc(OC)c1` stands 14.2%; under `Cc1cccc(Cc2cnc(NC(=O)C3=NCCN3)s2)c1`, 7.14%.
In the case of `COc1ccc(NC(=O)Nc2nnc(Cc3ccc(OC)c(OC)c3)s2)cc1` it was 14.9%; in that of `COc1ccc(Br)c(-c2nnc(CS(=O)(=O)c3ccccc3)o2)c1`, 9.57%.
For the compound `COc1ccc(-c2nn(CC(=O)N(C)C)c(=O)c3ccccc23)cc1`, the “hERG current change (%, negative = inhibition) at 1uM” value is given as 13.1%.
On to `O=C(Nc1cccc(S(=O)(=O)NC2=NCCC2)c1)c1ccccc1OC(F)F`, for which the “hERG current change (%, negative = inhibition) at 1uM” value stood at 8.38%.
As to `COc1ccc(CNC(=O)NC(C)(C)c2cccc(C(C)(C)NC(=O)NCc3ccc(OC)cc3)c2)cc1`, the “hERG current change (%, negative = inhibition) at 1uM” value was 6.21%.
Regarding `COc1ccc(S(=O)(=O)N2CCNC(=O)C2)cc1Br`, the “hERG current change (%, negative = inhibition) at 1uM” value is 6.75%.
Under `CCn1nc(NS(=O)(=O)c2cccc3nonc23)c2cc3ccc(C)cc3nc21` stands 8.87%; under `CCOc1ccccc1N(CC(=O)NCc1ccco1)C(=O)CCC(=O)Nc1nccs1`, 10.3%.
In the case of `Cc1ccccc1C(=O)Nc1ccc(C(=O)N/N=C/c2ccccn2)cc1`, the “hERG current change (%, negative = inhibition) at 1uM” value is reported as 11.8%.
For `CCc1ccccc1NS(=O)(=O)c1cccc2nsnc12`, the “hERG current change (%, negative = inhibition) at 1uM” value was 9.16%.
Regarding `Cc1cc(OCCCC(=O)NCCc2ccccn2)ccc1Cl`, the “hERG current change (%, negative = inhibition) at 1uM” value is on record as 19.1%.
For `CCCC1NC(C(=O)O)Cc2c1[nH]c1ccccc21` (centres unmarked), the “hERG current change (%, negative = inhibition) at 1uM” value is listed as 12.8%.
For the compound `Cc1cccc(NC(=O)CSCC(=O)Nc2cc(S(=O)(=O)N3CCOCC3)ccc2N2CCCC2)c1`, the “hERG current change (%, negative = inhibition) at 1uM” value is -4.81%.
Under `CCN(CC(=O)Nc1ccc(OC)cc1)C(=O)c1ccc2[nH]c3c(c2c1)CC(C)CC3` (centres unmarked) stands 3.18%.
For `COc1ccc(-c2nc(N)n(C(=O)c3ccc(C)cc3)n2)cc1`, the “hERG current change (%, negative = inhibition) at 1uM” value turned out to be 6.43%.
Consider `CCc1nnc(NC(=O)COc2ccc3ccccc3c2)s1`, for which the “hERG current change (%, negative = inhibition) at 1uM” value stood at 16.6%.
As for `CC(C)C[C@H](NC(=O)[C@H](Cc1ccccc1)n1c(=O)[nH]c2ccccc2c1=O)C(=O)N1CCC(C(=O)O)CC1`, the “hERG current change (%, negative = inhibition) at 1uM” value is recorded as 10.1%.
As to `COc1ccc(C(=O)Nc2cccc(N(C)S(C)(=O)=O)c2)cc1OC`, the “hERG current change (%, negative = inhibition) at 1uM” value was 5.37%.
